Consider 125 compounds from publication PMC9574860, “Chemical Toolkit for PARK7: Potent, Selective, and High-Throughput” (Journal of Medicinal Chemistry, 2022).

Molecules are shown by their SMILES. In all, about 7,900 compounds went through this assay and about 400 (5.1%) showed an effect of 50% or more. This is one part of the list.

For this assay, the target named is Parkinson's disease protein 7 (PARK7/DJ1) (human, UniProt Q99497). In words: primary screen, percent inhibition; read as competition with a fluorescent probe by fluorescence polarization; higher = more effect of the substance. As to conditions: 100 µM. The gist of the method: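 Fluorescence-polarization probe displacement (JYQ-107, 20 nM final, 2 h) after 2 h preincubation of PARK7 (0.2 μM final) with each fragment at 100 μM final. Read-out ex/em 480/520 nm; remaining activity derived from FP signal loss relative to reference controls.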
Parkinson's disease protein 7 (PARK7/DJ1), sequence (Q99497 whole entry, looked up, the tested form may be a part): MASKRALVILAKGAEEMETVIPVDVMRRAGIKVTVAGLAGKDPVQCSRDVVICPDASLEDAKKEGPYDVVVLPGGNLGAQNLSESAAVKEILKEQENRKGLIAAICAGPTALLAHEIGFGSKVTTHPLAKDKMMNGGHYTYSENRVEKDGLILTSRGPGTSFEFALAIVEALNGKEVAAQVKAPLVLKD
On to `O=C(CCl)c1ccc(F)c(Cl)c1`, for which the Inhibition % was found to be 99.2%.

Turning to `Cc1cc(C)n(-c2ccc(B3OC(C)(C)C(C)(C)O3)cc2)n1`, the Inhibition % is 10.1%. With `C=CC(=O)N1CCC(N2CCS(=O)(=O)CC2)CC1` the figure was 13.1%; with `CC1(C)OB(c2ccc(C#N)s2)OC1(C)C`, 6.33%.

As to `COc1ccccc1NS(=O)(=O)C=Cc1ccccc1`, the Inhibition % stood at 7.7%. As for `C=CC(=O)N1CCCc2cc(F)ccc21`, the Inhibition % was found to be 16.1%.

With `O=C(CCl)c1ccc(NC(=O)c2ccco2)cc1`, the Inhibition % was 90.6%. With `Cc1nnc(NC(=O)CN2CCSC2=O)s1` the figure was 3.04%; with `CC1(C)OB(c2cccc(-n3ccnn3)c2)OC1(C)C`, 6.79%. Take `CCc1cccc(N(C#N)CC(=O)N2CCNC(=O)C2)c1`: the Inhibition % was -1.16%. `C=CC(=O)NC(C)(C)c1noc(C(C)(C)C)n1`: the Inhibition % was 17.1%. For `CC(=O)N(c1cccc(Cl)c1)C1C=CS(=O)(=O)C1` (centres unmarked) the value was 14.6%; for `Cc1nn(C)c(Cl)c1C=CC(=O)N1CCNC(C)C1.Cl` (centres unmarked), 11%.

Regarding `O=C(Nc1nccs1)Oc1ccccc1`, the Inhibition % is -1.32%. In the case of `C=CC(=O)N1C[C@@H]2[C@@H](COC)[C@@H]2C1`, the Inhibition % is listed as 5.89%. `O=C1Cc2cc(C(=O)CCl)ccc2N1`: the Inhibition % is reported as 81.4%. For `CC(C)C1NC(=O)C12CCCC2` (centres unmarked) the value was 5.46%; for `C=CC(=O)N(C)C1CCCOC1` (centres unmarked), 13%; for `COc1ccc(NC(=O)CCl)cc1OC`, 17.1%.

`NC(=O)CSc1ccccc1NC(=O)CCl`: the Inhibition % was determined as 9.99%. With `C=CC(=O)N1CC2(CC2)c2ccccc21` the figure was 6.78%; with `N#CC=C1SCC(=O)N1CC(O)c1ccc(Cl)cc1` (centres unmarked), 6.45%; with `C=CC(=O)NC1CCCc2c1cnn2Cc1ccccc1` (centres unmarked), 12.5%. For `CC(C)NC(=O)C(C#N)=Cc1ccccc1Cl` the value was 6.2%. With `C=CC(=O)NC1CCC(=O)NC12CCC2` (centres unmarked) the figure was 7%; with `O=C(N[C@H]1CC[C@H](CO)CC1)c1cccnc1S`, 5.7%.

For `Cc1ncc(CN(C)S(=O)(=O)C=Cc2ccccc2)s1`, the Inhibition % was found to be 9.84%. Consider `Cn1c(N)c(C(=O)CCl)c(=O)n(C)c1=O`, for which the Inhibition % is 30.7%. For `CC(NC(=O)CCl)C1CC1` (centres unmarked) the value was 4.02%; for `CC1CCN(C(=O)NCCN2C(=O)CCC2=O)CC1`, 0.99%. With `N#CC(C(N)=O)=C1CCCCC1` the figure was 1.53%. Consider `CC(C)CN1CCN(c2ccc(C#N)nc2)CC1`, for which the Inhibition % stood at 2.57%. `CCOc1cc(S(=O)(=O)n2cccn2)c(C)cc1C`: the Inhibition % came to 0.108%. In the case of `O=C(CCl)NCCc1ccccc1`, the Inhibition % was found to be 17.9%. In the case of `N#CSc1ccc(NC(=O)CCl)c(Cl)c1`, the Inhibition % was determined as 55.8%. As for `O=C1CCC(CN2CCc3[nH]c4ccc(F)cc4c3C2)O1` (centres unmarked), the Inhibition % is listed as 21.1%.

As for `COC(=O)c1c(NC(=O)CCl)sc(C)c1C`, the Inhibition % came out at 10.8%. For `Cc1nc2ccccn2c(=O)c1CCCl`, the Inhibition % is 3.99%.

Take `COCC(C)NC(=O)C(C#N)=Cc1cccc(C)c1C` (centres unmarked): the Inhibition % stood at 4.67%.

As for `C=CC(=O)NCC1SCCS1`, the Inhibition % worked out at 6.16%. Consider `Cc1cc(Cn2nc(-c3ccc(F)cc3)oc2=O)no1`, for which the Inhibition % turned out to be 10.2%. As for `O=c1ccc2cc(S(=O)(=O)OCC(F)(F)F)ccc2o1`, the Inhibition % stood at 6.17%.

`CC(C)CN1C(=O)CN=C1S`: the Inhibition % is 1.24%.

Regarding `C=CC(=O)NC1CCCc2c1cnn2C` (centres unmarked), the Inhibition % is on record as 6.84%. `CCNC(=O)C(C)n1c(S)nc2ccccc2c1=O` (centres unmarked): the Inhibition % stood at 3.38%. With `CCCn1nc(C)c(B2OC(C)(C)C(C)(C)O2)c1C` the figure was 39.4%.

Take `CC(C)=C(F)C(=O)NS(=O)(=O)C=Cc1ccccc1`: the Inhibition % is 3.73%. For `Cn1ccnc1C(=O)CCl` the value was 32.3%. `N#Cc1ncn(CCC(=O)Nc2ccc(F)c(F)c2)n1`: the Inhibition % was 7.31%.

Turning to `O=C(N1CCCCC1)n1nnc2ccccc21`, the Inhibition % amounted to 5.5%.

For `CCc1nc(C#N)c(NCc2ccc(F)cc2)o1`, the Inhibition % is reported as 7.03%. For `c1cc2ccc(OCC3CO3)cc2[nH]1` (centres unmarked) the value was 5.75%. With `CN(C)C(=O)n1nccc1N` the figure was 10.8%; with `C=CC(=O)N1CCSSCC1`, 12.4%; with `C=CC(=O)N1CCNC(=O)C1c1ccccc1F` (centres unmarked), 4.97%. With `CCOc1ccc(C)cc1S(=O)(=O)n1ccc(C)n1` the figure was 3.57%; with `N#CC1COCCN1C(=O)c1cccc(S(=O)(=O)F)c1` (centres unmarked), 93.6%. On to `O=S(=O)(C=Cc1ccccc1)N1CCSCC1CO` (centres unmarked), for which the Inhibition % turned out to be 6.38%. For the compound `Cn1cc(S(=O)(=O)Oc2cccc(F)c2)c(=O)n(C)c1=O`, the Inhibition % stood at 5.3%. Regarding `N#Cc1nccnc1N1CCCC2(CCCCC2)C1`, the Inhibition % worked out at 4.04%. For `C=CC(=O)N1CCC(CS(C)(=O)=O)C1` (centres unmarked) the value was 4.28%; for `C=CC(=O)N1CCOCC1C1CCCO1` (centres unmarked), 11.4%; for `O=C(c1ccc(Cl)cc1)N1CCCCC(Cl)C1=O` (centres unmarked), 4.28%. With `Cc1cc(C=C(C#N)C(=O)NC(C)C)c(C)n1C1CC1` the figure was 0.489%; with `O=C(CCl)Nc1cccc2ncccc12`, 40.3%; with `N#Cc1ccc(NS(=O)(=O)C=Cc2ccc(Cl)cc2)nc1`, 9.02%. For `C#CC(=O)N1CC(O)C1` the value was 7.33%; for `N#Cc1ncn(Cc2csc(C3CCCCC3)n2)n1`, 3.68%; for `C=CC(=O)N1CCN(CCc2cccs2)CC1`, -1.19%. For the compound `CC1(C)OB(c2[nH]ncc2C(F)(F)F)OC1(C)C`, the Inhibition % stood at 11.9%. For `CC(C1CC1)N(Cc1ccccc1)C(=O)CCl` (centres unmarked) the value was 5.01%; for `C=CC(=O)N1CC(Cc2cccc(C)c2)C1`, 6.59%; for `CC(C)CN(C(=O)CCl)C1CCS(=O)(=O)C1` (centres unmarked), 5.54%. With `N#CC(=Cc1ccc(N)cc1)C(N)=O` the figure was 8.09%; with `C=CC(=O)NCC1CCN(c2ccccc2)C1` (centres unmarked), 9.18%.

On to `O=c1onc(-c2ccccc2)n1CC1CO1` (centres unmarked), for which the Inhibition % is 2.46%.

Take `CC1CCCCC1OCCNC(=O)CCl` (centres unmarked): the Inhibition % came to 6.68%. Turning to `Cc1ccc(C#N)nc1C`, the Inhibition % is 2.28%. With `C=CC(=O)N1CCCCC1c1ccc(C(=O)NC)n1C` (centres unmarked) the figure was 8.51%. As to `O=C1CCC(=O)N1CCCl`, the Inhibition % came to 1.08%.

Consider `O=C(O)Cc1ccccc1CS`, for which the Inhibition % stood at 89.6%.

On to `N#Cc1ncn(CC(=O)c2cccc(C(F)(F)F)c2)n1`, for which the Inhibition % stood at 4.15%. For `O=C(CCl)Nc1ccn(Cc2ccccc2)n1` the value was 15.4%; for `CCc1nn(C)c(CC)c1CNC(=O)c1cccnc1S`, 4.52%; for `O=C1OCCC1Sc1nnc(-c2cccs2)o1` (centres unmarked), 21.8%. Regarding `N#CC(=Cc1cccc(-c2ccccc2F)c1)C(N)=O`, the Inhibition % came to 10.5%. For `C=CC(=O)N(C)Cc1cc2ccccc2o1` the value was 5.57%.

For the compound `Cc1csc(C(C#N)=Cc2ccc(O)cc2)n1`, the Inhibition % is -25.7%. For `CN(C)Cc1ccc(B2OC(C)(C)C(C)(C)O2)cc1.Cl`, the Inhibition % is 5.78%. Regarding `CSCc1cccc(B2OC(C)(C)C(C)(C)O2)c1`, the Inhibition % was -1.56%. As for `Cc1nc2ccc(NC(=O)CN3CCSC3=O)cc2s1`, the Inhibition % came out at 8.16%. For `O=C(O)CN1CCSC1=O` the value was 6.49%.

For `N#CC=C(N)c1ccccc1`, the Inhibition % is listed as 13.9%.

As to `O=C(NC1CCc2[nH]ncc2C1)c1cccnc1S` (centres unmarked), the Inhibition % was 7.8%.

In the case of `Cc1nc(C)c(C=C(C#N)C(=O)NC(C)C)o1`, the Inhibition % worked out at 3.38%. As to `Cc1ccc(F)c(N(C#N)CCN2CCCS2(=O)=O)c1`, the Inhibition % was 6.92%.

As for `CS(=O)(=O)N1CCN(C(=O)CCl)CC1`, the Inhibition % worked out at 2.41%.

`NCC1CCN(C(=O)C=Cc2cncc(F)c2)C1` (centres unmarked): the Inhibition % is recorded as 7.15%.

In the case of `C=CC(=O)NC(C)c1nnc(C)[nH]1` (centres unmarked), the Inhibition % came out at 3.25%. As to `COc1cccc(C2CCCN2C(=O)CCl)c1` (centres unmarked), the Inhibition % stood at 2.56%. For `Nc1cc2ccccc2nc1S` the value was 52%; for `C=CC(=O)N[C@H]1C[C@H](c2ccc(OC)c(F)c2)C1`, 15%.

Consider `Cc1cc(C=C(C#N)C(=O)N2CCC2)c(C)n1CC(C)C`, for which the Inhibition % was -2.1%.

Consider `Cc1nn(C(=O)N2CCOCC2)c(C)c1Cl`, for which the Inhibition % is reported as 4.59%. `N#CC(=Cc1ccccc1Cl)C(N)=O`: the Inhibition % is -0.373%. For `C=CC(=O)N1CCC(N(C)S(C)(=O)=O)CC1` the value was 5.74%; for `CC(C)C1NC(=O)C12CC1OC1C2` (centres unmarked), 5.37%; for `C=CC(=O)N1CCC(Oc2cccnc2N2CCCC2)C1` (centres unmarked), 13.2%.

With `O=C(Oc1cccc2ccccc12)N1CCOCC1`, the Inhibition % was 0.489%. Turning to `O=C(Nc1ccccn1)c1cccnc1S`, the Inhibition % was determined as 5.78%.

`Cc1cn2c(n1)CCC(Nc1ccc(C#N)nc1)C2` (centres unmarked): the Inhibition % is recorded as 4.81%. For `Sc1ncnc2ccccc12` the value was 6.43%; for `C=CC(=O)N1CCc2c1cccc2C(F)(F)F`, 5.03%.

Regarding `CC(=O)N1CCC(n2c(S)nc3ccccc3c2=O)C1` (centres unmarked), the Inhibition % came out at 5.52%. In the case of `Cl.O=C(O)C1CCN(C(=O)C=Cc2ccc(Cl)s2)C1` (centres unmarked), the Inhibition % is 11.7%. For `C=CC(=O)NC1CCN(c2ccc(Cl)c(F)c2)C1=O` (centres unmarked) the value was 0.956%. For `NS(=O)(=O)c1cccc(NC(=O)CCl)c1` the value was 14.7%; for `CC(Cc1ccc(O)cc1)NC(=O)c1cccnc1S` (centres unmarked), 3.88%.

For the compound `Cc1cc([N+](=O)[O-])ccc1NC(=O)CCl`, the Inhibition % is reported as 18.4%. With `Cl.SCCNC1CCCCC1` the figure was 4.63%.

As for `Cc1cc(C(=O)CCl)c(C)n1-c1ccccn1`, the Inhibition % was 71.3%. Turning to `COc1cc(C)c(C)cc1S(=O)(=O)n1ccnc1C`, the Inhibition % is 1.84%.

In the case of `Cc1ccccc1CN1CCC(C2OCCO2)CC1`, the Inhibition % was 9.85%. `CCc1oc2ccccc2c1C=C(C#N)C(=O)NC1CC1`: the Inhibition % was -0.758%. In the case of `Cc1cc(Cl)nc(C#N)c1`, the Inhibition % stood at 20.8%.
